# Measurements reported in PMC4336329 (PLoS ONE, 2015).
# Hit rate of the full screen: of about 310,000 compounds, about 2,200 (0.71%) showed an effect of 50% or more. Effects have a minus sign here. Some of the results follow.
# Target: human ether-à-go-go-related gene (hERG) potassium channel (human, UniProt Q12809)
# Assay: primary screen, population patch clamp on CHO cells stably expressing hERG
# Sequence of human ether-à-go-go-related gene (hERG) potassium channel (Q12809 whole entry, looked up): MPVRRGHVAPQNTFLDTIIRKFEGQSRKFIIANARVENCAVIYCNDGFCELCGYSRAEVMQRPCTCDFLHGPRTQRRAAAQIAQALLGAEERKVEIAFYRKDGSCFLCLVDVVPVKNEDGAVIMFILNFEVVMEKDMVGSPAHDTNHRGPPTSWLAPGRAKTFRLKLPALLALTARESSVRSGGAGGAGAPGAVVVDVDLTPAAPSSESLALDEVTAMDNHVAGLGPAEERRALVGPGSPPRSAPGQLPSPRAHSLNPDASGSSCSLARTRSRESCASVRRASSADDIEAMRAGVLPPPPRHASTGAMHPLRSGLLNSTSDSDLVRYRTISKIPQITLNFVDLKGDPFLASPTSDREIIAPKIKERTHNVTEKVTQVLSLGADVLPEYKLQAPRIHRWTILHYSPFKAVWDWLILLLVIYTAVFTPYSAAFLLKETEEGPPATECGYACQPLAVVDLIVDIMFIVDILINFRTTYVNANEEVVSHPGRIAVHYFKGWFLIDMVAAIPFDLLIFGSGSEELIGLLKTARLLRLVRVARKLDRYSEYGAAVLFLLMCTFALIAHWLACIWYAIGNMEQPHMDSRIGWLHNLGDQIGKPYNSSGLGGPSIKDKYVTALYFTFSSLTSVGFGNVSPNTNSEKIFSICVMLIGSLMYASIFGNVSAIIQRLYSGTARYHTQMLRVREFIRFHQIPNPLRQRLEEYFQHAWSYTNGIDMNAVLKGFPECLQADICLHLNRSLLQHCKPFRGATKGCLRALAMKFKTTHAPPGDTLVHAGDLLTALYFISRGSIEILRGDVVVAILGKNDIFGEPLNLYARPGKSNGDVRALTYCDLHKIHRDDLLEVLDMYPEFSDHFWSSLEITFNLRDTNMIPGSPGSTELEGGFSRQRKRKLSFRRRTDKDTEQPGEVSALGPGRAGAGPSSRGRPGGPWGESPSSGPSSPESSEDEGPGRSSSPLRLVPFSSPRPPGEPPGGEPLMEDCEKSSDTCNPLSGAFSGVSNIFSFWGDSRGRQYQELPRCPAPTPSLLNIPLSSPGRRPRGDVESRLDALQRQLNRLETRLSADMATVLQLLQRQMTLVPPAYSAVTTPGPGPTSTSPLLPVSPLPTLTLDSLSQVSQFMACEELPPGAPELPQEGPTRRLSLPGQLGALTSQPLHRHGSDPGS
row,SMILES,"hERG current change (%, negative = inhibition) at 1uM"
1,Cc1ccc(-c2nnc(N3CCCCCC3)c3ccccc23)cc1,8.57%
2,COc1ccc(N2CCN(C(=O)CN(c3cccc(Br)c3)S(C)(=O)=O)CC2)cc1,2.55%
3,COc1ccccc1CC(=O)Nc1ccc(S(=O)(=O)N(C)C2CCN(C)CC2)cc1,5.27%
4,O=C(CNC(=O)Cc1ccccc1)NCC(=O)N1CCN(C(c2ccccc2)c2ccccc2)CC1,9.45%
5,O=C1CCCC2=C1C(c1ccc(O)c(Br)c1)C1=C(CCCC1=O)N2c1ccccc1,7.71%
6,Br.CCOc1ccc2c(c1)nc(SCC(=O)c1ccc(Br)s1)n2C,14.8%
7,O=C(COC(=O)CSc1ccc(F)cc1)NCC1CCCCC1,10.7%
8,COC(=O)c1ccc(NC(=O)CN(c2ccc(C)cc2)S(=O)(=O)c2c(C)n[nH]c2C)cc1,9.45%
9,COc1ccc(N(CC(=O)N2CCN(c3cc(C)ccc3C)CC2)S(=O)(=O)c2c(C)noc2C)cc1,14.7%
10,Cl.Nc1nc(-c2ccc3c(c2)OCCO3)cs1,14.3%
11,Cc1ccc(S(=O)(=O)N/N=C\c2cn(-c3ccccc3)nc2-c2ccccc2)cc1,14.2%
12,COc1cc2c(cc1OC)C(C(=O)NCCC(C)C)C1CCCCN1C2=O (stereo not shown),11.3%
13,O=C1COc2ccc(C(=O)COC(=O)c3ccc(S(=O)(=O)C(F)F)cc3)cc2N1,-12.9%
14,COc1cc(CC(=O)OCC(=O)NCCc2ccc(S(N)(=O)=O)cc2)cc(OC)c1OC,6.76%
15,Cc1ccc(S(=O)(=O)c2nc(-c3ccco3)oc2N2CCC(C)CC2)cc1,6.26%
16,CCn1c(SCC(=O)Nc2cccc(S(=O)(=O)N(C)c3ccccc3)c2)nnc1C1CC1,-0.458%
17,Nn1c(Cc2ccccc2F)nnc1SCC(=O)Nc1cccc(S(=O)(=O)NC2=NCCCCC2)c1,1.4%
18,CSc1nnc(-c2cc3c(-c4ccccc4)nn(C)c3s2)n1C,6.51%
19,CC(C)[C@H](NC(=O)c1ccco1)C(=O)OCC(=O)Nc1ccc(F)cc1,9.01%
20,Cc1ccc(NC(=O)C2C(=O)N(C)c3ccccc32)cc1 (stereo not shown),-1.93%
21,O=C(c1cc2c(ccc3ccccc32)oc1=O)N1CCN(CCO)CC1,22.7%
22,CCO[C@H]1OC(C(=O)Nc2ccccc2)=C[C@@H](c2cn(C(C)=O)c3ccccc23)[C@@H]1CCCO,3.67%
23,Cc1cccc(C(=O)NC(NCCc2ccccc2)C(Cl)(Cl)Cl)c1 (stereo not shown),8.23%
24,COc1cc(NC(=O)c2nccnc2N)cc(C(=O)Nc2cccc(C(F)(F)F)c2)c1,-4.62%
25,COc1ccc(Oc2coc3c(CN4CCOCC4)c(O)ccc3c2=O)cc1,-3.23%
26,C/C(CCc1ccccc1)=N\NC(=O)c1ccc(CN2CCOCC2)cc1,14.8%
27,Nc1cccc(Oc2ccc([N+](=O)[O-])cc2)c1,7.1%
28,C/C=C/c1ccc(OCCCCN2C(=O)NC(C)(C)C2=O)c(OC)c1,-2.24%

row,SMILES,"hERG current change (%, negative = inhibition) at 1uM"
1,Cc1ccc2sc(NC(=O)CN3C(=O)CCC3=O)nc2c1C,10.5%
2,COc1ccccc1NC(=O)CC1C(=O)Nc2ccccc2N1C(=O)c1ccccc1 (stereo not shown),13.6%
3,CCCn1c(=O)c2ccccc2n2c(=S)[nH]nc12,15.5%
4,CCN1C(=O)CC(C(=O)NCCc2ccc(S(N)(=O)=O)cc2)SC1=Nc1ccc(OC)cc1 (stereo not shown),13.2%
5,Cc1ccc(S(=O)(=O)NCCC(=O)NCc2ccccn2)cc1,10.2%
6,c1ccc(OCc2nn3c(-c4n[nH]c5c4CCC5)nnc3s2)cc1,5.36%
7,COc1ccc(CN(Cc2cccn2C)S(=O)(=O)c2ccc(C)cc2)cc1,9.77%
8,CCOC(=O)c1sc(Nc2ccccc2Cl)nc1C.O=C(O)C(=O)O,8.02%
9,CCN(CC)S(=O)(=O)c1cccc(NC(=O)c2ccc(Sc3nncn3C)c([N+](=O)[O-])c2)c1,4.75%
10,O=C(N/N=C/c1cccnc1)c1ccccc1Br,19.8%
11,O=C(O)CSCC(=O)Nc1cccc(C(F)(F)F)c1,-7.23%
12,CC(CC(=O)Nc1cccc(Cl)c1)c1ccccc1 (stereo not shown),9.16%
13,Cc1cccc(Oc2ncnc(N)c2[N+](=O)[O-])c1,6.59%
14,CN(N)C(=S)Nc1ccc(Cl)cc1,2.36%
15,O=C(O)CCCN1C(=O)/C(=C\C(Cl)=C\c2ccccc2)SC1=S,10.1%
16,O=C(NC1CC(=O)N(c2ccc(Cl)cc2)C1)C1CC1 (stereo not shown),4.3%
17,COc1ccccc1N1CCN(C(=O)c2cc(-c3ccco3)on2)CC1,3.37%
18,O=C1c2ccccc2C(=O)N1OCc1cccc(Cl)c1,17.5%
19,O=C(COc1ccccc1[N+](=O)[O-])Nc1cccnc1,1.74%
20,Cc1cccc(C)c1N1C(=O)CC(N2CCSCC2)C1=O (stereo not shown),1.04%
21,Cc1cccc(C)c1NC(=O)C(=O)NCCOc1ccc(Cl)cc1,11.5%
22,COc1c(C)cc(C(=O)C2CCCN(C(=O)c3cc4nc(C)cc(C)n4n3)C2)cc1C (stereo not shown),0.385%
23,O=C(O)COCC(=O)Nc1ccc2c(c1)ncn2CCc1ccccc1,16.4%
24,CCn1c(C)[n+](CC)c2ccc(S(=O)(=O)NC)cc21.[I-],14.8%
25,CC1(C)CC2CC(C)(CN2/C=N/c2sc3c(c2C#N)CC(C)(C)NC3(C)C)C1 (stereo not shown),6.45%
26,O=[N+]([O-])c1ccc(S(=O)(=O)N/N=C/c2cccs2)cc1,13.5%
27,c1ccc(Oc2nc3ccccc3n3cccc23)cc1,15.6%
